The structures appear in SMILES notation. Among all 43,000 compounds or so, about 200 (0.47%) were called active. Another 12% or so got no clear call; they are omitted. Calls follow the shape of the dose curve; as a rule, active = well fitted cell-killing curve with a large enough effect; inconclusive = small, poorly fitted or top-dose-only effect, or effect the other way; inactive = flat fitted curve, though single readings scatter. The list shows a part of the results.
% is scaled to controls: 0 for no effect and ±100 for the full control effect.

This experiment is described as follows: Cell viability qHTS assay in S16 Pmp22-F2sN cells. Also: nearly all actives have a fitted effect of over 65% in size. The note with it: S16 Pmp22-F2sN Schwann cells (luciferase reporters placed in the Pmp22 gene) viability, CellTiter-Glo, 24 h; series mostly up to 57.5 µM; activity change, negative = cytotoxicity: at the top concentration. The method, boiled down:
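Rat S16 Schwann reporter line, 24 h treatment with library compounds delivered at 23 nL per well. Cell viability by CellTiter-Glo luminescence.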
(qHTS replaces the single test concentration by a dilution series.)
In the case of `CCC(Cn1nnc2ccccc2c1=O)NC(=O)Nc1cccc(Cl)c1` (stereo not drawn), the “activity change, negative = cytotoxicity” value is inactive: 4.79%.

As for `COc1cc(OC)c(NC(=O)Cn2c(=O)cc(C(F)(F)F)c3c(C)nn(C)c32)cc1Cl`, the “activity change, negative = cytotoxicity” value was inactive: 11.3%.

Turning to `Cc1ccccc1NC(=O)CSc1nc2ccc(NC(=O)COc3ccccc3F)cc2s1`, the “activity change, negative = cytotoxicity” value is inactive: 9.88%.

`COCCNC(=O)C(=O)Nc1c2c(nn1-c1ccccc1)CS(=O)(=O)C2`: the “activity change, negative = cytotoxicity” value was inactive: 1.92%.

Consider `CCc1ccccc1NC(=O)c1cnn2c(C(F)(F)F)cc(-c3ccc(OC)c(OC)c3)nc12`, for which the “activity change, negative = cytotoxicity” value is inactive: 5.81%.

On to `COc1cc(C(=O)Nc2ccc(-c3cc(C(F)(F)F)nn3-c3ccccc3)cc2)cc(OC)c1OC`, for which the “activity change, negative = cytotoxicity” value was inactive: -4.99%.

`COc1ccccc1CNc1nc(-c2ccco2)nn1S(=O)(=O)c1ccc(Cl)cc1`: the “activity change, negative = cytotoxicity” value is inactive: -2.69%.

Take `Cc1cccc(NC(=O)Cn2nc(N3CCN(c4ccccc4)CC3)ccc2=O)c1C`: the “activity change, negative = cytotoxicity” value was inactive: -2.79%.

As to `CCOC(=O)c1cnn(-c2cccc(F)c2)c1C1CCNCC1`, the “activity change, negative = cytotoxicity” value is inactive: -2.89%.

On to `COc1ccccc1OCc1ccc(C(=O)Nc2ccc(C)c(C)c2)o1`, for which the “activity change, negative = cytotoxicity” value is inactive: 20.8%.

For the compound `CCOc1ccc(CCNC(=O)Cn2nc(C)c3c(C)n(-c4ccccc4)nc3c2=O)cc1OCC`, the “activity change, negative = cytotoxicity” value is inactive: 4.55%.

For the compound `CCOC(=O)c1c(C)sc(-c2c(-c3cc(C)ccc3C)[nH]c3c2c(=O)[nH]c(=O)n3C)c1O`, the “activity change, negative = cytotoxicity” value was inactive: -1.87%.

Take `COc1ccc(OC)c(CNC(=O)c2cc(-c3ccc(Cl)s3)nc3ccccc23)c1`: the “activity change, negative = cytotoxicity” value is inactive: -6.4%.

For `COc1cc(-c2nc3n(n2)C(c2ccc(F)cc2)C(C(N)=O)=C(C)N3)cc(OC)c1OC` (stereo not drawn), the “activity change, negative = cytotoxicity” value was inactive: -2.34%.

For the compound `Cc1ccc(-n2nc(C(=O)NCCc3cccc(C)c3)c3c4ccccc4n(C)c3c2=O)cc1`, the “activity change, negative = cytotoxicity” value was inactive: -3.97%.

Consider `COc1ccccc1NC(=O)c1oc2ccccc2c1NC(=O)c1ccc(S(=O)(=O)N(C)C)cc1`, for which the “activity change, negative = cytotoxicity” value is inactive: 29.7%.

For the compound `COc1ccc(-c2cc3ccc(O)c(CN4CCN(CCO)CC4)c3oc2=O)cc1OC`, the “activity change, negative = cytotoxicity” value is inactive: 4.61%.

Take `Cc1cccn2c(Nc3ccc4c(c3)OCCO4)c(-c3ccc(Br)o3)nc12`: the “activity change, negative = cytotoxicity” value is inactive: -26.8%.

On to `O=C(Nc1cccc(Cl)c1Cl)c1cc2nc(-c3ccc4c(c3)OCO4)cc(C(F)(F)F)n2n1`, for which the “activity change, negative = cytotoxicity” value was inactive: 7.37%.

Take `CCCN(CCC)C(=O)c1c[nH]c2ccc(S(=O)(=O)Nc3cc(C)cc(C)c3)cc2c1=O`: the “activity change, negative = cytotoxicity” value is inactive: -3.43%.

With `Cc1ccc(CNC(=O)c2cc(C3CC3)nc3c2c(C)nn3-c2cccc(Cl)c2C)cc1`, the “activity change, negative = cytotoxicity” value was inactive: 2.53%.

As for `Cc1cc(NC(=O)C2CCC(CNS(=O)(=O)c3ccc(Br)s3)CC2)ccc1Br` (stereo not drawn), the “activity change, negative = cytotoxicity” value is inactive: 21%.

`CCc1nn2c(-c3ccco3)ccnc2c1-c1ccccc1`: the “activity change, negative = cytotoxicity” value was inactive: 0.218%.

As for `COc1cc(OC)c(NC(=O)c2cc3c(s2)-c2ccc(Cl)cc2SC3)cc1Cl`, the “activity change, negative = cytotoxicity” value is inactive: 8.36%.

Take `Cc1cccc(N2CCN(C(=O)C3CCN(Cc4nc(-c5ccc(Cl)cc5)oc4C)CC3)CC2)c1C`: the “activity change, negative = cytotoxicity” value is inactive: -0.138%.

Consider `COc1ccc(NC(=O)CSc2nc(-c3ccc(OC)cc3)cc(=O)[nH]2)cc1`, for which the “activity change, negative = cytotoxicity” value was inactive: 16.9%.

For `CCOC(=O)c1cc(S(=O)(=O)Nc2ccc(OC(F)(F)F)cc2)[nH]n1`, the “activity change, negative = cytotoxicity” value is inactive: -11.1%.

Take `CCC1CN(C(=O)N2CCC(C(=O)NCc3cc(OC)ccc3OC)CC2)c2ccccc2O1` (stereo not drawn): the “activity change, negative = cytotoxicity” value was inactive: -8.34%.

`COc1cccc(NC(=O)CN2C(=O)COc3ccc(S(=O)(=O)N4CCCCCC4)cc32)c1`: the “activity change, negative = cytotoxicity” value was inactive: 4.41%.

Turning to `CCc1ccc(NC(=O)CC2C(=O)N(c3ccc(C)cc3)C(=O)N2CCc2ccncc2)cc1` (stereo not drawn), the “activity change, negative = cytotoxicity” value was inactive: -14.5%.

As for `CCOc1ccc(NC(=O)Cn2cc(C(=O)c3ccc(OCC)cc3)c(=O)c3cc4c(cc32)OCCO4)cc1`, the “activity change, negative = cytotoxicity” value was inactive: 4.32%.

For the compound `Cc1ccc(CCNC(=O)c2cc3cc4cc(C)ccc4nc3s2)cc1`, the “activity change, negative = cytotoxicity” value was inactive: 4.14%.

Take `COc1ccc(NC(=O)N(C(C)C)C2CCN(C(C)=O)CC2)c(OC)c1`: the “activity change, negative = cytotoxicity” value was inactive: 4.73%.

With `COc1ccccc1Cn1c(CNS(=O)(=O)c2ccc(CC(C)C)cc2)nc2cccnc21`, the “activity change, negative = cytotoxicity” value was inactive: -8.82%.

`Cc1cc(SCC(=O)Nc2ccc(Cl)cc2)nc2ccccc12`: the “activity change, negative = cytotoxicity” value was inactive: -5.08%.

`Cc1cccc(NC(=O)CSc2cn(CC(=O)N3CCCC3)c3ccccc23)c1C`: the “activity change, negative = cytotoxicity” value is inactive: -0.0875%.

Regarding `CC(=O)N1CCCc2cc(S(=O)(=O)N3CCCC(C(=O)NCc4ccccc4)C3)ccc21` (stereo not drawn), the “activity change, negative = cytotoxicity” value is inactive: -5.2%.

For the compound `Cc1ccc(Cn2cc(C(=O)c3ccc(C)cc3)c(=O)c3ccc(C)nc32)cc1`, the “activity change, negative = cytotoxicity” value is inactive: -10.8%.

With `CCc1ccc(-c2cc(C)no2)cc1S(=O)(=O)Nc1ccc(Cl)cn1`, the “activity change, negative = cytotoxicity” value is inactive: 1.93%.

Take `Nc1c(C(=O)NCc2ccc3c(c2)OCO3)nnn1CC(=O)Nc1ccc(Br)cc1`: the “activity change, negative = cytotoxicity” value is inactive: -2.74%.

Turning to `Cc1cccc(C)c1OCC(=O)N1CCC(c2nc3ccccc3o2)CC1`, the “activity change, negative = cytotoxicity” value was inactive: 9.05%.

For the compound `COC(=O)c1ccc(NC(=O)N2CCC(CN3CCc4ccccc4C3)CC2)cc1`, the “activity change, negative = cytotoxicity” value was inactive: 1.62%.

As for `CCOc1ccc(C(=O)Nc2ccc(C(=O)OCc3cc(=O)n4nc(CC)sc4n3)cc2)cc1`, the “activity change, negative = cytotoxicity” value is inactive: 7.04%.

For the compound `COc1ccc(NC(=O)CSc2ccc(-c3cccs3)nn2)cc1`, the “activity change, negative = cytotoxicity” value was inactive: -5.18%.

On to `CCOc1ccc(-c2c(C)nn3c(-c4ccccc4)c(C(=O)NCCOC)cnc23)cc1OCC`, for which the “activity change, negative = cytotoxicity” value was inactive: -0.163%.

In the case of `O=C(COc1ccc2oc3c(c2c1)CCCC3)Nc1ccc(Cl)cc1`, the “activity change, negative = cytotoxicity” value is inactive: 8.42%.

For `CCOc1ccc(N(CC)S(=O)(=O)N2CCCC(C(=O)Nc3ccc(NC(C)=O)cc3)C2)cc1` (stereo not drawn), the “activity change, negative = cytotoxicity” value was inactive: 3.54%.

Take `CCOC(=O)c1ccc(NS(=O)(=O)c2cn(C)c(C)n2)cc1`: the “activity change, negative = cytotoxicity” value is inactive: 18.4%.

These data come from PubChem BioAssay AID1508642 (National Center for Advancing Translational Sciences (NCATS), 2021).
